In PubChem BioAssay AID485360 (National Center for Advancing Translational Sciences (NCATS), 2010):
Out of some 230,000 compounds screened, about 1,500 (0.65%) were called active. Inconclusive results, whose numbers are uncertain, are shown with a selection of clear calls. Calls come from the whole dose curve; as a rule, active = well fitted inhibition curve with a large enough effect; inconclusive = small, poorly fitted or top-dose-only effect; inactive = no such curve, though single readings can be large or run the other way. Potencies beside an inconclusive call are fits to weak or partial responses and may not hold up.

Each compound was assayed against Lethal(3)malignant brain tumor-like protein 1 (Homo sapiens) (UniProt Q9Y468) (assay: qHTS Assay for the Inhibitors of L3MBTL1). Details: AlphaScreen L3MBTL1–H3K9me1 peptide binding; series mostly up to 57.1 µM.
Sequence of UniProt Q9Y468 (Q9Y468 whole entry, looked up): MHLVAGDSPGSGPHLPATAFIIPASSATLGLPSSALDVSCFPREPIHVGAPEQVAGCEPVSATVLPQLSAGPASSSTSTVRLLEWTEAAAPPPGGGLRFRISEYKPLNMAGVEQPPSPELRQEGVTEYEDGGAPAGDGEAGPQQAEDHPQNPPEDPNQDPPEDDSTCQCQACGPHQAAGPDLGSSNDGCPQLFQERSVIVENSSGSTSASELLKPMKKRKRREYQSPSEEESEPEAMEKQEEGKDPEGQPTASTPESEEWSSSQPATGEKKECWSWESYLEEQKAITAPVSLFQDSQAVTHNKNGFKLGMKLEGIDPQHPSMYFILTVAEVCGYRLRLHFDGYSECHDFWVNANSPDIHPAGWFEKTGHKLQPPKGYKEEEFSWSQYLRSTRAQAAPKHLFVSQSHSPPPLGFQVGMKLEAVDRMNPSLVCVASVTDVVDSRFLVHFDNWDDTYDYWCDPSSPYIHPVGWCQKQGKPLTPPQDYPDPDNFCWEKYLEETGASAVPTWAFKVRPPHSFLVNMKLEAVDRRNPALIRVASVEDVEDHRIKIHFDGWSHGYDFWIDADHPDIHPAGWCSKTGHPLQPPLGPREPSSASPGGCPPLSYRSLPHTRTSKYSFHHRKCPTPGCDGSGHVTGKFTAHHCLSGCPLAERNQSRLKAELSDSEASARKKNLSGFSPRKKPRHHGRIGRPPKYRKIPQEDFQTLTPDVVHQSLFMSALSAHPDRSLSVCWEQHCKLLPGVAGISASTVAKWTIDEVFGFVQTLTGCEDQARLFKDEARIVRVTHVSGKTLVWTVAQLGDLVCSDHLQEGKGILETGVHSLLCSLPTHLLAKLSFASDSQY
In short: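 Displacement of a biotinylated histone H3(1-15) peptide monomethylated at Lys9 (75 nM) from L3MBTL1 (50 nM) was measured by AlphaScreen after a 30 min room-temperature compound incubation; cefsulodin titration served as intraplate control.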
Note: nearly all actives have a fitted effect of over 60% in size.
Potency is the fitted concentration of half-maximal effect; tags give direction and shape of the fitted curve.

SMILES | Potency
CC1(NC(=O)CCc2nc3sc4c(c3c(=O)[nH]2)CCCC4)CCS(=O)(=O)C1 (stereo unspecified) | inconclusive: 39.8 µM [inhibitor, single point]
CC(=O)Nc1cccc(NC(=O)Nc2cccc(Cl)c2C)c1 | inactive
CCN(CC(=O)Nc1ccc2c(c1)OCCO2)C(=O)c1ccc(C(F)(F)F)cc1 | inactive
CCN(CC(=O)NCc1cccs1)S(=O)(=O)c1cccc(C(C)=O)c1 | inconclusive: 39.8 µM [inhibitor, single point]
CC(NC(=O)/C(=C\c1ccco1)NC(=O)c1ccco1)C(=O)O (stereo unspecified) | inconclusive: 35.5 µM [inhibitor, single point]
COc1ccc(Nc2nc(NCc3ccco3)nc(N/N=C/c3ccc(O)cc3)n2)cc1 | inconclusive: 39.8 µM [inhibitor, partial curve]
CCN(CC)c1nc(-c2nn[nH]n2)nc(N(CC)CC)n1 | inactive
COC(=O)c1[nH]c2ccc(C)cc2c1NC(=O)CN1CCCc2ccccc21 | inactive
CCn1c2ccccc2c2cc(CN3CCN(C(=O)c4ccco4)CC3)ccc21 | inconclusive: 25.1 µM [inhibitor, single point]
COc1ccc2cc(/C(C)=N/NC(=O)c3cc(-c4cccnc4)nc4ccccc34)ccc2c1 | inactive
Oc1ccc(NCc2cccc(OCc3ccccc3)c2)cc1 | inconclusive: 11.2 µM [inhibitor, partial curve]
Cc1[nH]c2ccc(Br)cc2c(=S)c1C/C=C/Cl | inconclusive: 31.6 µM [inhibitor, partial curve]
O=C(O)c1ccc(CN2C(=O)CSC2=S)cc1 | inconclusive: 35.5 µM [inhibitor, single point]
N#C/C(N=Nc1ccccc1O)=N\Nc1ccccc1O | inconclusive: 31.6 µM [inhibitor, single point]
OC1(CC#CCN2CCCCC2)c2ccccc2-c2ccccc21 | inconclusive: 44.7 µM [inhibitor, single point]
CC1=C(CC(=O)c2ccc(Cl)cc2)C(=O)c2ccccc2C1=O | inconclusive: 7.94 µM [inhibitor, full curve]
CC1(C)OC2C(CO)OC(n3cnc4c(=S)nc[nH]c43)C2O1 (stereo unspecified) | inactive
O=C(O)CCCCCn1c(SCC(=O)c2ccc(O)c(O)c2)nc2ccsc2c1=O | active: 31.6 µM
Cn1c(-c2ccc(F)cc2)cnc1SCC(=O)N1CCCCC1 | inactive
Fc1ccccc1OCCn1c(=S)[nH]c2ccccc21 | inconclusive: 35.5 µM [inhibitor, single point]
O=C(Nc1nc2ccc(F)cc2s1)C1CCN(S(=O)(=O)c2cc([N+](=O)[O-])ccc2Cl)CC1 | active: 28.2 µM
